Measurements: PubChem BioAssay AID651820 (National Center for Advancing Translational Sciences (NCATS), 2012)
Out of some 340,000 compounds screened, about 12,000 (3.5%) were called active. Inconclusive results, whose numbers are uncertain, are shown with a selection of clear calls. The call rests on the fitted dose curve; in most records, active means well fitted inhibition curve with a large enough effect; inconclusive means small, poorly fitted or top-dose-only effect, or another doubt; inactive means no such curve, though single readings can be large or run the other way. Potencies of inconclusive entries are left out as doubtful fits.

assay: qHTS Assay for Inhibitors of Hepatitis C Virus (HCV); conditions: Huh7.5.1 HCVcc-Cre (HCVcc is cell-culture hepatitis C virus) infection, luciferase reporter, 44 h; activity change, negative = inhibition: at 41.8 µM (top of the series) unless noted
How it was run: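 Reporter virus HCVcc-Cre (~0.5 moi) infects cells exposed to compound; seeding density 1,000 cells/well with 4 h settling beforehand. Luminescence, 15 sec read, taken 44 h post-infection following a 15 min RT substrate incubation.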
On the % scale 0 is the no-effect control and ±100 the full control effect; potency means the concentration at half of the fitted maximal effect; tags describe the fitted curve by direction and shape.

SMILES | Potency | activity change, negative = inhibition
Oc1ccc(/C=N/Nc2cc(N3CCOCC3)nc(N3CCOCC3)n2)cc1 | inconclusive [inhibitor, partial curve] | –
Cc1c(C)c2ccc(OCC(=O)N3CCN(C(=O)C4COc5ccccc5O4)CC3)cc2oc1=O (centres undefined) | inconclusive [inhibitor, partial curve] | –
C/C(=C\C(=O)c1ccccc1)NCc1ccc(F)cc1 | inconclusive [inhibitor, single point] | –
C(=N\Nc1nc(Nc2ccccc2)nc(N2CCOCC2)n1)/c1c[nH]c2ccccc12 | active: 3.55 µM | –
CC(C)C[C@@H](C(=O)NCc1ccco1)N1C(=O)N2CCc3c([nH]c4ccccc34)[C@@]2(C)C1=O | inconclusive [inhibitor, partial curve] | –
CCCn1c(=O)c(C(=O)NNC(=O)c2ccccc2Cl)c(O)c2ccccc21 | – | inactive: -17.1%
CCOC(=O)N1CCC(Nc2c(-c3ccccc3)c(=O)c2=O)CC1 | – | inactive: -6.41%
Cc1cccc(OCCSc2nc3c([nH]2)c(=N)ncn3Cc2ccccc2)c1 | inconclusive [inhibitor, single point] | –
CCCCC(CC)COP(=O)(OCC(CC)CCCC)OCC(CC)CCCC (centres undefined) | – | inactive: 4.69%
COc1ccc(/C=C2/SC(=S)N(CCCC(=O)Nc3cccc(O)c3)C2=O)cc1 | inconclusive [inhibitor, partial curve] | –
O=S(=O)(c1ccc(Cl)cc1)c1nc(-c2ccco2)oc1N1CCOCC1 | – | inactive: -13.4%
CCOCCn1ccc2c(OCC(=O)Nc3ccc(OC)c(OC)c3)cccc2c1=O | inconclusive [inhibitor, partial curve] | –
COc1ccc(-c2ccc(CNCCCN3CCOCC3)o2)cc1Cl | active: 11.2 µM | –
CC(=O)NS(=O)(=O)c1ccc(NC(=O)c2cc(-c3ccc(C)cc3)nc3ccccc23)cc1 | – | inactive: 20.3%
Cc1ccc(O)c(C(CC(=O)NC(C)C)c2ccccc2)c1 (centres undefined) | inconclusive [inhibitor, single point] | –
COC(=O)c1c(NC(=O)CSc2nncs2)sc2c1CCCCC2 | active: 7.08 µM | –
Cc1ccc(S(=O)(=O)NC(C(=O)OCC(=O)NC2CCS(=O)(=O)C2)C(C)C)cc1 (centres undefined) | inactive | –
COc1ccccc1C(=O)NNC(=O)c1ccc(F)cc1 | – | inactive: 19.2%
O=C(Nc1ccc2c(c1)OCO2)c1ccc(CN2CCOCC2)cc1 | inconclusive [inhibitor, single point] | –
CN1CCN(C(=O)c2ccc3c(c2)N(Cc2ccc(Cl)cc2)C(=O)c2ccccc2S3=O)CC1 (centres undefined) | inactive | –
CCS(=O)(=O)C1=NSC2=NC(=O)/C(=C\c3ccc(OC(=O)c4ccco4)cc3)C(=N)N21 | – | inactive: 8.99%
C[C@@H]1CN(C2CCN(Cc3nc(CC4CC4)no3)CC2)C[C@H](C)O1 | inconclusive [inhibitor, single point] | –
C[C@H](CO)N1C[C@H](C)[C@@H](CN(C)S(=O)(=O)c2ccc(F)cc2)Oc2ccc(NC(=O)NC3CCCCC3)cc2C1=O | inconclusive [inhibitor, partial curve] | –

SMILES | Potency | activity change, negative = inhibition
CCC(C)NCCOCCOc1cc(C)c(Cl)c(C)c1 (centres undefined) | inconclusive [inhibitor, partial curve, poor fit] | –
CN(C)C1(CNC(=O)c2ccc(NS(=O)(=O)c3ccc(Cl)c(Cl)c3)cc2)CCCCC1 | inconclusive [inhibitor, single point] | –
CCc1ccc(OCCNC(=O)c2ccc(S(=O)(=O)N(C)C)cc2)cc1 | inconclusive [inhibitor, partial curve] | –
CCOc1ccc(Nc2nc(N)nc(CSC(=S)N3CCN(c4ccccc4)CC3)n2)cc1 | inconclusive [inhibitor, single point] | –
CCCOc1ccccc1/C=N/Nc1ccnc(=O)[nH]1 | inconclusive [inhibitor, single point] | –
CCOC(=O)c1c(C)[nH]c(C)c1C(=O)CN1C(=O)NC(CC(C)C)C1=O (centres undefined) | – | inactive: -11.8%
CCOCCCN1C(=O)C2C(C(=O)Nc3ccc(OCC)cc3)C3C=CC2(O3)C1C(=O)NC1CCCCC1 (centres undefined) | inconclusive [inhibitor, partial curve, poor fit] | –
CC(C)Sc1ncnc2c1cnn2-c1ccccc1 | inconclusive [inhibitor, partial curve] | –
Cc1ccc(NC(=O)CCc2ccccc2)cc1S(=O)(=O)N1CCOCC1 | inconclusive [inhibitor, single point] | –
CC(=O)c1c(C)[nH]c(C(=O)Nc2ccc(Cl)c(S(=O)(=O)N(C)C)c2)c1C | inconclusive [inhibitor, full curve] | –
O/N=C/c1ccc(-c2cc(Cl)ccc2Cl)o1 | inconclusive [inhibitor, single point] | –
O=C(Nc1ccc2c(c1)OCO2)c1ccc(NC2CC2)c([N+](=O)[O-])c1 | inconclusive [inhibitor, partial curve] | –
O=C(CCl)Nc1c2c(nn1-c1ccccc1)CSC2 | inconclusive [inhibitor, single point] | –
CN(C)S(=O)(=O)c1ccc(C(=O)NCc2ccc3[nH]c4c(c3c2)CCCC4)cc1 | inconclusive [inhibitor, partial curve] | –
COc1ccc(S(=O)(=O)N2CCOC2CNC(=O)C(=O)NCc2ccccc2OC)cc1 (centres undefined) | inconclusive [inhibitor, single point] | –
O=C(NS(=O)(=O)c1ccccc1)c1ccccc1F | – | inactive: -1.81%
O=C(NC(=S)Nc1cc(S(=O)(=O)N2CCOCC2)ccc1O)c1ccco1 | – | inactive: 3.68%
CCOC(=O)C(=O)N1CCC(C(=O)OCC)CC1 | – | inactive: 9.32%
CCCCOc1ccccc1C1CC(=O)NC2=C1C(=O)CCC2 (centres undefined) | inconclusive [inhibitor, single point] | –
CCN(CC)CCNC(=O)c1ccc(NC(=O)c2ccc(C(=O)c3ccccc3)cc2)cc1 | inconclusive [inhibitor, partial curve] | –
C[C@]12CCC(=O)C=C1CC[C@@H]1[C@@H]2[C@@H](O)C[C@]2(C=O)[C@@H](C(=O)CO)CC[C@@H]12 | inconclusive [inhibitor, single point] | –
COc1ccc(CN2CCCC(CO)(Cc3ccc(F)cc3)C2)c(OC)c1OC (centres undefined) | inconclusive [inhibitor, partial curve] | –
C/C(=N\Nc1nc(Cl)c(Cl)cc1Cl)c1ccc(S(=O)(=O)NCc2ccco2)cc1 | active: 6.31 µM | –

SMILES | Potency | activity change, negative = inhibition
Cc1ccc(NC(=O)c2cccs2)cc1NC(=O)c1ccccc1Cl | – | inactive: -13.1%
COc1ccc(NC(=O)C2CCN(C(=O)c3ccc(OC)cc3)CC2)cc1 | – | inactive: 3.59%
CCn1nc(C)c(CNC(=O)c2cc(COc3ccc(C)nc3)on2)c1C | active: 11.2 µM | –
Cc1c(NC(=O)c2cc(-n3cnnc3)ccc2Cl)cccc1-c1nc2ccccc2s1 | inconclusive [inhibitor, full curve] | –
O=C1OCC2=C1C(c1ccc3c(c1)OCO3)Sc1ccccc1N2 (centres undefined) | inconclusive [inhibitor, partial curve] | –
N#Cc1ccc(CSc2nnc(NC(=O)C3CC(=O)N(c4ccc5c(c4)OCCO5)C3)s2)cc1 (centres undefined) | – | inactive: 0.203%
COCCn1c(=NC(=O)CSCC(=O)NC2CCCCC2)sc2cc(OC)ccc21 | inconclusive [inhibitor, partial curve] | –
Nc1ncnc2c1ncn2C1OC(COP(=O)(O)O)C(O)C1O (centres undefined) | – | inactive: 6.63%
Cc1ccc(Cn2cnc3sc4c(c3c2=O)CCC4)c(C)c1 | inconclusive [inhibitor, single point] | –
O=C(C1CCN(S(=O)(=O)Cc2ccccc2)CC1)N1CCCc2ccccc21 | inconclusive [inhibitor, partial curve] | –
C=CCC[C@H](Cc1ccc(F)cc1)C(=O)OC[C@@H](NC(=O)[C@@H](CC=C)CC(=O)N(CCO)Cc1ccccc1)C(C)(C)C | active: 3.16 µM | –
COCCCNCCCCOc1ccc(OCc2ccccc2)cc1 | active: 11.2 µM | –
COc1cccc(NC(=O)Nc2ccccc2SC)c1 | inconclusive [inhibitor, partial curve] | –
CC(=NC1CC1)c1c(-c2ccccc2)[nH]n(-c2nc3ccccc3s2)c1=O | inconclusive [inhibitor, single point] | –
CCC1CCc2c(sc(NC(C)=O)c2C#N)C1 (centres undefined) | inconclusive [inhibitor, single point] | –
COc1cc(C(C(=O)NC2CCCCC2)N(C(=O)Cc2c[nH]c3ccccc23)c2ccc(C)cc2)cc(OC)c1OC (centres undefined) | – | inactive: 0.517%
O=C(NC(Cc1ccccc1)C(=O)N1CCN(S(=O)(=O)c2ccccc2F)CC1)c1ccccc1 (centres undefined) | inconclusive [inhibitor, single point] | –
CCCCN(C(=O)c1ccc(S(=O)(=O)N2CCCC2)cc1)C1CCS(=O)(=O)C1 (centres undefined) | – | inactive: 1.13% [at 8.37 µM]
Cc1ccc(O)c(C(=O)c2cnc3c(c2)CN(C)C(=O)N3)c1 | inconclusive [inhibitor, partial curve] | –
CCN(CC)c1ccc(S(=O)(=O)N2CCOCC2)cc1NC(=O)COC(=O)/C=C/c1ccccc1 | – | inactive: -24.7%
CCOC(=O)c1ccc(NC(=S)NCCc2ccc(OC)c(OC)c2)cc1 | – | inactive: -32%
Cc1cc(Br)ccc1NC(=O)CNC(=O)Cn1ncc(Cl)c(Cl)c1=O | active: 2.24 µM | –
COc1ccc2c(-c3ccccc3)cc(SCC(N)=O)nc2c1 | inconclusive [inhibitor, single point] | –
